The full ranking holds about 33,000 sequences; the median of “E-score (-0.5 to 0.5)” is about -0.035, and the highest 2% start at about 0.34. Some of the results follow.
Biological target: T1, Mot3 (UniProt P54785)
T1 sequence: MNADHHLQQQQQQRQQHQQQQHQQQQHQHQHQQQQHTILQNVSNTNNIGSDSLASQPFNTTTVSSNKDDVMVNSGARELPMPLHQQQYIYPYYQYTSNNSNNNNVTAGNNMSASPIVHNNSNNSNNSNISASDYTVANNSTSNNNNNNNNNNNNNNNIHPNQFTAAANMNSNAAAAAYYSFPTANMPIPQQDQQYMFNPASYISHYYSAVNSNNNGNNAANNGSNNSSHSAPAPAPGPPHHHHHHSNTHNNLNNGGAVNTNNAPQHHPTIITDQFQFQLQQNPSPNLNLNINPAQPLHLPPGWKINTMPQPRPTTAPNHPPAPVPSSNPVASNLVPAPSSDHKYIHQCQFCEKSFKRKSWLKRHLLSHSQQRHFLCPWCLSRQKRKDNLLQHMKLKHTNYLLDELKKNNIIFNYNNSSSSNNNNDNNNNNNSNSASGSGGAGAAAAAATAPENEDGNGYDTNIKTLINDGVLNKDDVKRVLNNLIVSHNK
Experiment: PBM E-score (8-mer binding enrichment) (E-score (-0.5 to 0.5)); higher = stronger / more preferred TF binding; most listed sequences are background and not binding sites
Details: protein concentration: 200 nM; construct: GST-full length
Procedure, shortened: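 Masliner-normalised scans of fluorescent anti-GST signal were the basis for scoring. That signal came from GST-tagged yeast transcription factors applied at about 100-200 nM to double-stranded universal all-10-mer Agilent arrays on fresh or once-stripped slides. Each ungapped eight-base word, pooled with its reverse complement, received an E-score from the Universal PBM Analysis Suite.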

Row | Sequence | PBM E-score
1 | CGCAATCA | 0.108
2 | AAGAAAAT | 0.148
3 | CATGCGGG | -0.167
4 | AGGCGGGA | -0.137
5 | CAAGCGTC | -0.0912
6 | ATGGCTAC | 0.00372
7 | GACTACTA | 0.103
8 | GAGACATC | -0.261
9 | GATAAGAC | -0.133
10 | GTAACCAA | 0.00785
11 | ACTTTCAA | 0.0926
12 | GACGTAAA | 0.248
13 | GCCTGCGC | 0.194
14 | ACACCGGA | 0.0203
15 | GAAGGGCC | -0.151
16 | GTCCAATA | -0.0665
17 | GAGACGCA | -0.00287
18 | GCTGCGTA | 0.204
19 | CAGGTGTA | 0.15
20 | GCGCGGAA | -0.231
21 | CAGTGAAC | 0.0148
22 | CATTGCCA | 0.0689
23 | CCACTCCA | -0.215
24 | CGAGATCA | -0.107
25 | CTTCGGGA | -0.19

Row | Sequence | PBM E-score
26 | CCGCGTGA | 0.00197
27 | TCAAGCAA | -0.0561
28 | AGCCGACG | -0.153
29 | CCATTCTA | -0.0781
30 | AGTACCTG | 0.378
31 | ACGCGGCT | 0.117
32 | AGCTACAT | 0.145
33 | CGAAAATC | 0.0592
34 | TATCGTCA | 0.00747
35 | ACTTCGTG | 0.0558
36 | GATCCGCA | -0.296
37 | CCCGCATC | -0.225
38 | CCAGGGTC | -0.296
39 | AGGCTGTC | -0.15
40 | TACGGCAA | 0.0266
41 | CCTGACAA | 0.0407
42 | CGAACGAC | -0.144
43 | AAGCGATT | -0.0463
44 | CCATAGTC | -0.141
45 | ACAATGGT | -0.058
46 | GAATGGTC | -0.201
47 | CCCGTCCA | -0.115
48 | AGACCTCG | -0.189
49 | GATAAGTA | 0.0457
50 | ACCTGTAC | 0.199

Row | Sequence | PBM E-score
51 | AACCCCAA | 0.00599
52 | ATTCCAGG | 0.189
53 | ACCCGACA | -0.0489
54 | CCTATATA | 0.119
55 | CGATTGAC | 0.147
56 | ATACGGGA | -0.127
57 | AGACTCCG | -0.222
58 | CAAGCTAA | 0.00884
59 | ACGCCAGA | -0.0298
60 | AGGGGAGG | -0.236
61 | ATCCACAT | 0.0728
62 | AAACAGTG | 0.15
63 | CGCGGTGC | -0.134
64 | AGCGTCCA | -0.172
65 | AATATTTG | 0.0798
66 | CTTCCTGA | -0.0128
67 | CAACTTCG | 0.0654
68 | CCCGGCCG | -0.319
69 | GCGTCCTA | -0.0737
70 | AATACTGG | -0.133
71 | CCCAGCAC | -0.175
72 | GGGTACCC | -0.304
73 | CAAAGCCA | 0.0685
74 | CATACATC | 0.079
75 | CGGTTGAC | -0.0767

Row | Sequence | PBM E-score
76 | AGATTCTG | -0.111
77 | CATATCAG | -0.13
78 | GATTGCGA | -0.0815
79 | CTGCTAGA | -0.159
80 | CAGACCCA | -0.184
81 | CGTAAAGA | 0.239
82 | GACTTACA | 0.145
83 | CACTAGTA | 0.0592
84 | GCGGTGCC | 0.305
85 | GATGCCTA | 0.439
86 | CCCGCTAA | -0.231
87 | GAGGAAAC | -0.027
88 | CAGTGGGG | -0.258
89 | ACCAGGCC | -0.0646
90 | TAAATCGA | 0.0828
91 | ATCGAGTC | -0.173
92 | CTGCTGTC | -0.0996
93 | AACAGATA | 0.128
94 | ACCTATAA | 0.122
95 | CCGAAGCA | 0.0254
96 | CAACATTG | 0.245
97 | AGCGCGGG | -0.00632
98 | ATCCGACA | -0.165
99 | CACCACAC | 0.00987
100 | CGTGACAG | -0.064

Row | Sequence | PBM E-score
101 | AGACGATG | -0.0146
102 | GACTTTCC | 0.0833
103 | CATGTAGA | 0.39
104 | GCTGGATA | 0.0442
105 | ATCTGCAC | -0.214
106 | AGTTTCGC | -0.252
107 | ACCTTAAC | 0.173
108 | GGTGTATA | 0.0111
109 | GATGCCAC | -0.392
110 | ACCAGCCC | -0.166
111 | ATTAAGAG | -0.041
112 | AACCGTCC | -0.278
113 | GGCGAAAA | 0.00026
114 | AGCAGAGA | -0.22
115 | ACGAAATG | 0.0717
116 | AATGCCGA | -0.249
117 | CACCCGAA | -0.0326
118 | GTCGTCGA | -0.124
119 | AGCGCCGC | -0.148
120 | CCGAGCAC | -0.0689
121 | AGAAGGCA | 0.475
122 | GAAGTCCA | -0.216
123 | GCATTTAA | 0.175
124 | CCATCGCG | -0.0312
125 | AATCGAAT | -0.00625

Row | Sequence | PBM E-score
126 | GACTAGCA | -0.132
127 | GCGGCAGC | -0.357
128 | TAACTATA | 0.0299
129 | GCCCAGGA | -0.0653
130 | CTATAATC | -0.0237
131 | CTGCCGCA | -0.351
132 | CTTTAGAA | 0.143
133 | ACGTAGGA | 0.184
134 | ACGCTGTA | 0.0866
135 | AAGGACAA | 0.0955
136 | AATTTGTG | -0.103
137 | AAACTTCT | 0.0624
138 | GGCAAGCC | 0.329
139 | GCGTATTA | 0.298
140 | GTAGCGCA | -0.107
141 | TAGCGCAA | 0.0519
142 | CTGGGACA | -0.0738
143 | AACGCACT | 0.112
144 | CCGGCTAA | -0.14
145 | CACATCAG | -0.0602
146 | GGGTAGTA | -0.109
147 | ATTAGTCG | -0.179
148 | AGTACGCC | -0.155
149 | ACGGTCTC | -0.263
150 | CCTAACAC | 0.255

Row | Sequence | PBM E-score
151 | ACTCCCTA | 0.108
152 | CGGCTTAG | -0.287
153 | ACAACACG | 0.336
154 | CCATACGG | -0.0434
155 | TTAGGCAA | 0.481
156 | AATTACAA | 0.362
157 | AACATAAA | 0.197
158 | GGGGACGA | -0.246
159 | AGATTTAT | -0.0544
160 | GCTTAGCC | -0.3
161 | CATCTGGG | -0.254
162 | GGGATGCA | -0.33
163 | ACAATCTA | 0.0294
164 | ATCTACCG | -0.115
165 | TGACTGAA | 0.0712
166 | AACTAGAG | 0.0109
167 | AGACACGA | 0.276
168 | CGCACACC | -0.0075
169 | ACGGCTTA | 0.00499
170 | ATCACTCA | -0.256
171 | GGGAGCGA | -0.32
172 | GATCTAAA | -0.0607

Reference: the supplement of paper PMC3334620
